Data on 83 variants can be found in the RNAGym collection of RNA variant scans (doi:10.1093/nar/gkz1192).

Read counts are not given, so values of variants with three or more changes are uncertain.

The labels stand for the following.
B1: CPEB3 Ribozyme (parent)
chain: UAACAGGGGGCCACAGCAGAAGCGUUCACGUCGCAGCCCCUGUCAGAUUCUGGUGAAUCUGCGAAUUCUGCUGUAUAUCUC

The data set covers variants of B1. The data set is described as follows: self-cleavage, relative activity (ratio to wild type); higher = more cleavage; in vitro, sequencing. In a few lines: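 CPEB3 self-cleaving ribozyme mutant libraries were made by rounds of error-prone PCR, barcoded, and transcribed in vitro with T7 RNA polymerase for 5 hours at 37°C. Cleavage occurred during transcription and a 15 min DNase I step before EDTA stop. RNAs were reverse transcribed with template switching and Illumina-sequenced, with DNA sequencing mapping barcodes to variants. Relative activity is the variant's cleaved/total read fraction divided by wild type's (minimum 5 reads), averaged across three batches.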
For the variant A15G A18U A45G U51C U60C C71G A75G, the self-cleavage amounted to 0.22.

Turning to A15G A28G A35U U54C G61A, the self-cleavage was 0.12. Take A15G A21G G30A U31C: the self-cleavage came out at 0.09. For A15G G24C U58C U74A the value was 0.07; for A15G A28U U78A, 0.63; for A15G A28U U78C, 0.48.

Consider A15G G19A A45U U74A, for which the self-cleavage came out at 0.3. As to A15G A47U U66C A75G, the self-cleavage stood at 0.16. In the case of A15G C62U U80C, the self-cleavage turned out to be 0.26. For A15G A18U U31C U78G the value was 0.13; for A15G A21G U43A A57G U69G U80C, 0.09; for A15G A28G U43C A57G G70U U72G, 0.03. Consider A15G G24A U60C, for which the self-cleavage was 0.17.

For the variant A15G C32G U41C A47G U74C U80C, the self-cleavage amounted to 0.1. In the case of A15G G22C U69A U80A, the self-cleavage stood at 0.18. Take A15G A20U A75U: the self-cleavage is 0.06. On to A15G G61C U72C, for which the self-cleavage came to 0.45. With A15G G36A A56U A57G U58C, the self-cleavage was 0.11. Consider A15G A35G U60C U76C U78C, for which the self-cleavage came to 0.4.

For the variant A15G A20G U31C U41A U78C, the self-cleavage is 0.29. For A15G A20G G24A A28U A57U the value was 0.1; for A15G C39A U41G U74A, 0.49; for A15G C38G U43A A65G, 0.19. A15G A56G U58C: the self-cleavage worked out at 0.14. Consider A15G A21G G30A U41C U58C, for which the self-cleavage amounted to 0.23. Regarding A15G G19A U41C U48C U54A C59A U60C, the self-cleavage is 0.19.

Turning to A15G A45U U48C, the self-cleavage was 0.55. Then A15G A18G C23G U67A A75G, with 0.17. As to A15G C40G U41C A64G U72A, the self-cleavage is 0.31. For A15G A35U U43A U51A the value was 0.55; for A15G A35G C62A, 0.19; for A15G A18G U26C, 0.32. Regarding A15G A20G A64G, the self-cleavage was 0.38. In the case of A15G A20U A45G A47G A65G U67C, the self-cleavage is 0.08. In the case of A15G A18U C34A U58C, the self-cleavage came out at 0.06.

In the case of A15G A18U U31A U54A, the self-cleavage was determined as 0.44. As for A15G A20U A28U A47U A64U U78C, the self-cleavage is 0.09. As to A15G A28G U31C C37A U54A A57G, the self-cleavage was 0.13. With A15G A20U C32U A35U, the self-cleavage came to 0.07. Then A15G A45U A64U U67A A77G, with 0.16. A15G A35U U41C U49C: the self-cleavage was 0.17.

For A15G A18U U31C U41A U78G, the self-cleavage amounted to 0.32. For A15G C40G U43C U48C U80C, the self-cleavage was 0.32. Take A15G A20G U51C U60C A64G: the self-cleavage was 0.06. For the variant A15G C29U A47U U58C, the self-cleavage came to 0.2. Then A15G C27A G36A U51C A56G U78C, with 0.12. Then A15G C23U U26A A47G U51C A75U, with 0.12; and A15G C29U U41A A75G, with 0.45; and A15G A20G A45G, with 0.13. Then A15G G24A A35U U41C U72G, with 0.08; and A15G A20G U25C U51A C62A U67C, with 0.06; and A15G A35U U41C A47G U72A, with 0.19.

Take A15G G22A U31C A75U: the self-cleavage worked out at 0.31. Then A15G C37A A57C U74C, with 0.06. Take A15G A28G A56G: the self-cleavage worked out at 0.32. A15G G30U C32U U41C U48C U67C: the self-cleavage is 0.05. Regarding A15G A45U C50U, the self-cleavage was found to be 0.19. In the case of A15G A65U U67A U78C, the self-cleavage was 0.14. For the variant A15G A45U U78A, the self-cleavage is 0.4. Regarding A15G A45U U78C, the self-cleavage was found to be 0.32.

For the variant A15G A57G U58A U67C, the self-cleavage worked out at 0.18.

For the variant A15G A21G U67A, the self-cleavage worked out at 0.38. For A15G C34U U66A the value was 0.18. Then A15G C39U U41C U54G U69A, with 0.45. For A15G G16A C38U U41A the value was 0.08.

On to A15G A64G U69A, for which the self-cleavage stood at 0.13. In the case of A15G A21G C44A, the self-cleavage turned out to be 0.18. Turning to A15G A35U U54C G63U U72C, the self-cleavage was 0.89. Then A15G A18G U25A C40U U51C A56G A77C, with 0.17; and A15G G52U U67C U72A, with 0.18; and A15G A20G U67A, with 0.44. For the variant A15G A20G G53A A57G, the self-cleavage worked out at 0.42. Consider A15G C40A U41C U60G U67A U74A U80A, for which the self-cleavage is 0.03. Regarding A15G A35U U51C U60C U69C, the self-cleavage worked out at 0.07. Take A15G A20U U25C A28G U67C: the self-cleavage worked out at 0.06. Regarding A15G C32U A47G U60A U76C, the self-cleavage came to 0.13. Take A15G A56G U60G: the self-cleavage came to 0.38. Regarding A15G A18U G24A, the self-cleavage is 0.21. In the case of A15G C37U U58A A65G, the self-cleavage was 0.2. As for A15G A21U U25C A45G U54C U72A, the self-cleavage stood at 0.25. For the variant A15G G30A U31A C40A U69A, the self-cleavage was 0.09. In the case of A15G C29U U49C U69C U74C C79U, the self-cleavage was found to be 0.15. Then A15G A18U U26C A35U, with 0.24.
